Assay results taken from publication PMC12820563, “FoxP3 forms a head-to-head dimer in vivo and stabilizes its multimerization on adjacent microsatellites”.
Some of the results follow.

target: T1, MBP-FoxP1dN (Mus musculus, UniProt P58462 326-579); test: PD-seq (MBP pull-down with sequencing); 20 mM Tris-HCl pH 7.5, 100 mM NaCl, 1.5 mM MgCl2, 0.4 uM protein, 0.1 uM dsDNA library, 30 min, room temperature, amylose pull-down; high values mean tight binding; settings: protein: recombinant; tags: His6-MBP; chain copies: 2; dsDNA, one strand shown
T1 sequence: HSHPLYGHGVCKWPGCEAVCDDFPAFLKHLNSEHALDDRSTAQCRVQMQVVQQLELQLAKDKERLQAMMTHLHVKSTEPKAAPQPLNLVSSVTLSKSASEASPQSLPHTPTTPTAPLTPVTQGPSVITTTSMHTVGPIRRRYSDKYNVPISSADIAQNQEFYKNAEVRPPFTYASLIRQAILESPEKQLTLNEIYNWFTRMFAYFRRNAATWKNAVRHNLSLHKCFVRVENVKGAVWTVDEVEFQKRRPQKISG
Outline: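 Mouse FoxP3 or FoxP1 fragment lacking the N-terminus, His6-MBP-tagged and expressed in E. coli, was incubated at 0.4 µM with 0.1 µM Klenow-filled degenerate double-stranded DNA library for 30 min at room temperature in Tris pH 7.5 buffer with NaCl and MgCl2. Complexes captured on amylose resin were washed three times and their DNA sequenced on Illumina. Binding is reads-per-million enrichment of pull-down over input, replicates pooled.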

Sequence	binding signal
GATGATTGTTCTCCCAGCTGATGAATTGTGGCAATCGAGTAAACAAATTTTCCTAATCTTTCTGTTCAAGCGCCATCTAC	1.38 RPM ratio (pull-down/input)
GATGATTGTTCTCCCAGCTGATGAATTGCATCATTCGAGTAAACAAATTTTCCTAATCTTTCTGTTCAAGCGCCATCTAC	1.84 RPM ratio (pull-down/input)
GATGATTGTTCTCCCAGCTGATGAATTCTGACCCTCGAGTAAACAAATTTTCCTAATCTTTCTGTTCAAGCGCCATCTAC	0.771 RPM ratio (pull-down/input)
GATGATTGTTCTCCCAGCTGATGAATTGTCGTTATCGAGTAAACAAATTTTCCTAATCTTTCTGTTCAAGCGCCATCTAC	1.3 RPM ratio (pull-down/input)
GATGATTGTTCTCCCAGCTGATGAATTGGTCGCTTCGAGTAAACAAATTTTCCTAATCTTTCTGTTCAAGCGCCATCTAC	0.933 RPM ratio (pull-down/input)
GATGATTGTTCTCCCAGCTGATGAATTCCTGCGCTCGAGTAAACAAATTTTCCTAATCTTTCTGTTCAAGCGCCATCTAC	0.847 RPM ratio (pull-down/input)
GATGATTGTTCTCCCAGCTGATGAATTTCCTCTTTCGAGTAAACAAATTTTCCTAATCTTTCTGTTCAAGCGCCATCTAC	0.943 RPM ratio (pull-down/input)
GATGATTGTTCTCCCAGCTGATGAATTATACACCTCGAGTAAACAAATTTTCCTAATCTTTCTGTTCAAGCGCCATCTAC	1.1 RPM ratio (pull-down/input)
GATGATTGTTCTCCCAGCTGATGAATTATGTCATTCGAGTAAACAAATTTTCCTAATCTTTCTGTTCAAGCGCCATCTAC	1.3 RPM ratio (pull-down/input)
GATGATTGTTCTCCCAGCTGATGAATTACCTTCCTCGAGTAAACAAATTTTCCTAATCTTTCTGTTCAAGCGCCATCTAC	0.933 RPM ratio (pull-down/input)
GATGATTGTTCTCCCAGCTGATGAATTCTTAAACTCGAGTAAACAAATTTTCCTAATCTTTCTGTTCAAGCGCCATCTAC	0.925 RPM ratio (pull-down/input)
GATGATTGTTCTCCCAGCTGATGAATTCTCAGCCTCGAGTAAACAAATTTTCCTAATCTTTCTGTTCAAGCGCCATCTAC	0.804 RPM ratio (pull-down/input)
GATGATTGTTCTCCCAGCTGATGAATTTATGTGTTCGAGTAAACAAATTTTCCTAATCTTTCTGTTCAAGCGCCATCTAC	1.65 RPM ratio (pull-down/input)
GATGATTGTTCTCCCAGCTGATGAATTAGCCACGTCGAGTAAACAAATTTTCCTAATCTTTCTGTTCAAGCGCCATCTAC	0.929 RPM ratio (pull-down/input)
GATGATTGTTCTCCCAGCTGATGAATTAACCAGGTCGAGTAAACAAATTTTCCTAATCTTTCTGTTCAAGCGCCATCTAC	0.843 RPM ratio (pull-down/input)
GATGATTGTTCTCCCAGCTGATGAATTGAACCATTCGAGTAAACAAATTTTCCTAATCTTTCTGTTCAAGCGCCATCTAC	0.893 RPM ratio (pull-down/input)
GATGATTGTTCTCCCAGCTGATGAATTGCAGTATTCGAGTAAACAAATTTTCCTAATCTTTCTGTTCAAGCGCCATCTAC	1.33 RPM ratio (pull-down/input)
GATGATTGTTCTCCCAGCTGATGAATTTGTACGATCGAGTAAACAAATTTTCCTAATCTTTCTGTTCAAGCGCCATCTAC	1.1 RPM ratio (pull-down/input)
GATGATTGTTCTCCCAGCTGATGAATTAGAATCGTCGAGTAAACAAATTTTCCTAATCTTTCTGTTCAAGCGCCATCTAC	0.932 RPM ratio (pull-down/input)
GATGATTGTTCTCCCAGCTGATGAATTGTCCCTATCGAGTAAACAAATTTTCCTAATCTTTCTGTTCAAGCGCCATCTAC	1.01 RPM ratio (pull-down/input)

Sequence	binding signal
GATGATTGTTCTCCCAGCTGATGAATTAGCTGAGTCGAGTAAACAAATTTTCCTAATCTTTCTGTTCAAGCGCCATCTAC	0.844 RPM ratio (pull-down/input)
GATGATTGTTCTCCCAGCTGATGAATTCTGGGGTTCGAGTAAACAAATTTTCCTAATCTTTCTGTTCAAGCGCCATCTAC	0.765 RPM ratio (pull-down/input)
GATGATTGTTCTCCCAGCTGATGAATTGCGTCCTTCGAGTAAACAAATTTTCCTAATCTTTCTGTTCAAGCGCCATCTAC	1.12 RPM ratio (pull-down/input)
GATGATTGTTCTCCCAGCTGATGAATTGCTGAACTCGAGTAAACAAATTTTCCTAATCTTTCTGTTCAAGCGCCATCTAC	0.955 RPM ratio (pull-down/input)
GATGATTGTTCTCCCAGCTGATGAATTGAGATTATCGAGTAAACAAATTTTCCTAATCTTTCTGTTCAAGCGCCATCTAC	0.982 RPM ratio (pull-down/input)
GATGATTGTTCTCCCAGCTGATGAATTCTTGATGTCGAGTAAACAAATTTTCCTAATCTTTCTGTTCAAGCGCCATCTAC	1.37 RPM ratio (pull-down/input)
GATGATTGTTCTCCCAGCTGATGAATTGATCCTTTCGAGTAAACAAATTTTCCTAATCTTTCTGTTCAAGCGCCATCTAC	0.82 RPM ratio (pull-down/input)
GATGATTGTTCTCCCAGCTGATGAATTTATTTAATCGAGTAAACAAATTTTCCTAATCTTTCTGTTCAAGCGCCATCTAC	1.4 RPM ratio (pull-down/input)
GATGATTGTTCTCCCAGCTGATGAATTATCTGAGTCGAGTAAACAAATTTTCCTAATCTTTCTGTTCAAGCGCCATCTAC	0.949 RPM ratio (pull-down/input)
GATGATTGTTCTCCCAGCTGATGAATTTTGAAGCTCGAGTAAACAAATTTTCCTAATCTTTCTGTTCAAGCGCCATCTAC	0.831 RPM ratio (pull-down/input)
GATGATTGTTCTCCCAGCTGATGAATTTGTGCATTCGAGTAAACAAATTTTCCTAATCTTTCTGTTCAAGCGCCATCTAC	1.64 RPM ratio (pull-down/input)
GATGATTGTTCTCCCAGCTGATGAATTGCTCCGTTCGAGTAAACAAATTTTCCTAATCTTTCTGTTCAAGCGCCATCTAC	0.977 RPM ratio (pull-down/input)
GATGATTGTTCTCCCAGCTGATGAATTGGAACCTTCGAGTAAACAAATTTTCCTAATCTTTCTGTTCAAGCGCCATCTAC	0.816 RPM ratio (pull-down/input)
GATGATTGTTCTCCCAGCTGATGAATTACCAGGTTCGAGTAAACAAATTTTCCTAATCTTTCTGTTCAAGCGCCATCTAC	0.873 RPM ratio (pull-down/input)
GATGATTGTTCTCCCAGCTGATGAATTAGTCTCATCGAGTAAACAAATTTTCCTAATCTTTCTGTTCAAGCGCCATCTAC	1.03 RPM ratio (pull-down/input)
GATGATTGTTCTCCCAGCTGATGAATTTACTCCCTCGAGTAAACAAATTTTCCTAATCTTTCTGTTCAAGCGCCATCTAC	1.21 RPM ratio (pull-down/input)
GATGATTGTTCTCCCAGCTGATGAATTGACCAAATCGAGTAAACAAATTTTCCTAATCTTTCTGTTCAAGCGCCATCTAC	1.22 RPM ratio (pull-down/input)
GATGATTGTTCTCCCAGCTGATGAATTTACCTCGTCGAGTAAACAAATTTTCCTAATCTTTCTGTTCAAGCGCCATCTAC	1.12 RPM ratio (pull-down/input)
GATGATTGTTCTCCCAGCTGATGAATTCCACGTTTCGAGTAAACAAATTTTCCTAATCTTTCTGTTCAAGCGCCATCTAC	0.878 RPM ratio (pull-down/input)
GATGATTGTTCTCCCAGCTGATGAATTTGGTTGATCGAGTAAACAAATTTTCCTAATCTTTCTGTTCAAGCGCCATCTAC	1.15 RPM ratio (pull-down/input)
